# Reference: PMC4336329 (PLoS ONE, 2015)
# The whole screen tested about 310,000 compounds, of which about 2,200 (0.71%) showed an effect of 50% or more. Effects have a minus sign here. The list shows a part of the results.
# Molecular target: human ether-à-go-go-related gene (hERG) potassium channel (human, UniProt Q12809)
# Assay: primary screen, population patch clamp on CHO cells stably expressing hERG
# Chain of human ether-à-go-go-related gene (hERG) potassium channel (Q12809 whole entry, looked up): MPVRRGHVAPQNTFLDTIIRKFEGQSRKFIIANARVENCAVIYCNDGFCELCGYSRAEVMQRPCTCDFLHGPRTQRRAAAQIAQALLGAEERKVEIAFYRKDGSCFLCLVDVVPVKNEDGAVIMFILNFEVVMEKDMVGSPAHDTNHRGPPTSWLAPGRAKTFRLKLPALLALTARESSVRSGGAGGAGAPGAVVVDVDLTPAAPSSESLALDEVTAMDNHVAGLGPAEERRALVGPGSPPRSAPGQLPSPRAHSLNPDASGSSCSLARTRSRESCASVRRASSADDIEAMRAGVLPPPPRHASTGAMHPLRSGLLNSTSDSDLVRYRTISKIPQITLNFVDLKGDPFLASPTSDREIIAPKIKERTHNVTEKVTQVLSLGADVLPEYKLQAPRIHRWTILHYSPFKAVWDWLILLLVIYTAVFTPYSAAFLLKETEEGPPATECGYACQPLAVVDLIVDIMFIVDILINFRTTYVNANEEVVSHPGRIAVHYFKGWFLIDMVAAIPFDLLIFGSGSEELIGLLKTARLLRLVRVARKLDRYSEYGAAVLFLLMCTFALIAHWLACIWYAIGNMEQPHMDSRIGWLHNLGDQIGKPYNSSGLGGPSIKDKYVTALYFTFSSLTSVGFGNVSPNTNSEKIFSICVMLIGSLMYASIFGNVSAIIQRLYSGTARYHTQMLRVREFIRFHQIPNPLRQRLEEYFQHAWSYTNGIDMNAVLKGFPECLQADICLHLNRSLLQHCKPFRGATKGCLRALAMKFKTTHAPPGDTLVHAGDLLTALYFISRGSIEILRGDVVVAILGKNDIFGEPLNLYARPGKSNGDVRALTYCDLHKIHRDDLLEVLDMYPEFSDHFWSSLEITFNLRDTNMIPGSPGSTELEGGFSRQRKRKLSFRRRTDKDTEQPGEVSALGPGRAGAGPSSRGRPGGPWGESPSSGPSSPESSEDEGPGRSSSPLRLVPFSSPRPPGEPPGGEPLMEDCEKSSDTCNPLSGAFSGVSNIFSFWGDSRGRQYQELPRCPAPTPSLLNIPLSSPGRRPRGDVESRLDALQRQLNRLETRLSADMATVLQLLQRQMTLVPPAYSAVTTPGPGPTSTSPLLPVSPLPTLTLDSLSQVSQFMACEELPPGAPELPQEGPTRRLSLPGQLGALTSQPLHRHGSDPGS
row,SMILES,"hERG current change (%, negative = inhibition) at 1uM [%]"
1,O=C(O)c1cc(NC(=O)c2cccc(N3C(=O)c4ccccc4C3=O)c2)cc(C(=O)O)c1,-3.72
2,CC(C)C(NC(=O)C(c1ccccc1)c1ccccc1)c1nc2ccccc2[nH]1 (stereo not shown),12.3
3,Cc1ccc(C)c(NC(=O)CCCCCN2C(=O)[C@@H]3Cc4ccccc4CN3C2=O)c1,-9.94
4,CCn1nc(C)c(CNC(=O)c2cc(COc3cncc(Cl)c3)on2)c1C,12.2
5,O=C1C(=O)N(CCCn2ccnc2)C(c2cccc(Br)c2)/C1=C(\O)c1ccc2c(c1)OCCO2 (stereo not shown),-0.598
6,COc1ccc2[nH]c(=O)c(CN(C(=O)c3cccnc3)c3cccc(C)c3)cc2c1,13.4
7,C=CCn1c(SCc2nc3scc(-c4ccccc4)c3c(=O)[nH]2)nnc1-c1ccccc1F,10.6
8,COc1ccc(S(=O)(=O)N2CCN(C(=O)c3sccc3-c3ccccc3)CC2)cc1,-5.23
9,O=C(NC1CCCc2ccccc21)C1CCN(c2c3c(nc4ncnn24)CCC3)CC1 (stereo not shown),3.52
10,COC(=O)Cn1c(C)c(/C=C/c2cc[n+](C)cc2)c2ccccc21.[I-],9.68
11,O=C1c2ccccc2C(=O)N1c1ncccn1,12.6
12,CCCCOCCCNC(=O)c1ccc([N+](=O)[O-])c(C)c1,2.88
13,Cc1noc(C)c1COC(=O)c1ccc(F)c(S(=O)(=O)N2CCOCC2)c1,10.3
14,Cn1c(=O)cc(OCCCC(=O)NCc2ccco2)c2ccccc21,4.22
15,CCOc1ccccc1NC(=O)c1ccccc1N(C)S(C)(=O)=O,11
16,Cc1ccc(CCC(=O)Nc2ccccc2F)s1,4.84
17,CC1CCC(N(CCCN)Cc2ccco2)CC1C (stereo not shown),5.82
18,Cc1ccc2nc(-c3ccccc3)cc(C(=O)NCC(c3ccco3)N(C)C)c2c1 (stereo not shown),2.3
19,O=C(CSc1n[nH]c(-c2ccccn2)n1)Nc1ccccc1,8.04
20,CCc1c(C)nc2cc(-c3ccc(OC)c(OC)c3)nn2c1NCC1CC1,4.07
21,CC1CCCN(c2ccc(C(=O)NCc3cccs3)cn2)C1 (stereo not shown),6.2
22,Cc1cccc(CNCCc2c[nH]c3ccccc23)c1.O=C(O)C(=O)O,13.5

row,SMILES,"hERG current change (%, negative = inhibition) at 1uM [%]"
1,O=C(NCc1ccccn1)c1ccc(N2CCCC2=O)cc1,13.7
2,Cc1ccccc1-n1c(Cn2c(=O)sc3ccccc32)nnc1SCC(=O)Nc1nccs1,8.57
3,CC(=O)C1=C(C)OC(N)=C(C(=O)OC(C)C)C12C(=O)Nc1ccccc12 (stereo not shown),-0.186
4,NC(=O)c1ccccc1NS(=O)(=O)c1cccs1,14.6
5,COc1ccc(CN=CC2=C(O)CC(C)(C)CC2=O)cc1,6.75
6,CCOc1ccc(CNCCc2ccc(S(N)(=O)=O)cc2)cc1.Cl,-44.8
7,CC1CN(c2nc3ccccc3nc2SCC(=O)Nc2ccc(F)cc2)CC(C)O1 (stereo not shown),8.9
8,COCc1cc(=O)n2[nH]c(-c3ccc(C)cc3)cc2n1,8.16
9,CN1C[C@H](CO)C[C@@H]2c3cccc4[nH]cc(c34)C[C@H]21,6.89
10,Cc1cc(C)cc(N(CC(=O)NC2CCCCCC2)S(=O)(=O)c2c(C)[nH]c(=O)[nH]c2=O)c1,8.18
11,CCOC(=O)N1CCN(C(=O)Cn2nc(C)c3sc4ccccc4c3c2=O)CC1,8.38
12,CN1CCC(N(C)C(=O)COc2ccccc2Cl)CC1,6.85
13,O=C(Cn1cnc2c(oc3ccccc32)c1=O)c1ccccc1,-4.22
14,COc1ccc(-c2csc(N(CCCN3CCOCC3)C(=O)c3ccco3)n2)cc1.Cl,-2.59
15,Cc1nc(-c2ccccc2)sc1C(=O)CSc1ccc(F)cc1,-0.54
16,COc1ccc(OC)c(NC(=O)c2ccc(OC3CSC3)cc2)c1,-2.97
17,Cc1cc(C)n2c(SCC(=O)Nc3cc(C)on3)nnc2n1,-5
18,COC(=O)c1cc(Br)c(N)cc1OC,12
19,Nc1cc(=O)[nH]c(SCC(=O)Nc2cc(S(=O)(=O)N3CCOCC3)ccc2Cl)n1,-1.44
20,CCOC(=O)C=C1CCN(c2ncc(C(F)(F)F)cc2Cl)CC1,10.6
21,CCOc1ccc(NS(=O)(=O)c2cccc(C(=O)N(C)Cc3ccco3)c2)cc1,-7.06
22,CCn1nc(C)c(/C=N/NC(=O)Cn2nnc(N)n2)c1C,-2.31

row,SMILES,"hERG current change (%, negative = inhibition) at 1uM [%]"
1,CCOC(=O)/C=c1\s/c(=C(\C#N)C(=O)NC)n(-c2ccccc2)c1=O,9.88
2,COCCN=C1N[C@@H](c2ccc(Br)cc2)C(C(=O)OC)=C(C)N1Cc1ccccc1,-7.8
3,COc1ccc(CCNC(=O)c2cc(S(=O)(=O)N3CCOCC3)cn2C)cc1OC,2.52
4,Nc1c(C(=O)NCC2CCCO2)c2nc3ccccc3nc2n1-c1ccccc1 (stereo not shown),14.8
5,CCOC(=O)c1ccc(NC(=O)CSc2ncccn2)cc1,4.72
6,Cc1c(O)ccc2c(CN3CCN(C/C=C/c4ccccc4)CC3)cc(=O)oc12,-36.2
7,Cc1cccc(C(=O)N2CCCC(c3nc(-c4ccc(F)cc4)no3)C2)c1 (stereo not shown),14
8,COc1ccc(CN2CCN(C(=O)Cn3nc(C)n4cccc4c3=O)CC2)c(OC)c1OC,13.6
9,COc1cc(/C=N/n2c(-c3n[nH]c4c3CCC4)n[nH]c2=S)ccc1O,15.9
10,O=C(Cn1c(C(F)(F)F)nc2ccccc21)Nc1ccccc1C(=O)O,9.36
11,Cc1cc(C)c(-c2cc(NC(=O)COC(=O)c3ccc(NC(=O)CC#N)cc3)n(-c3ccccc3)n2)cc1C,6.53
12,Cc1oc2nc(SCC(=O)Nc3ccc(S(N)(=O)=O)cc3)nc(NC(=O)c3ccccc3)c2c1C,3.93
13,Nc1cc(=O)[nH]c(SCCSc2ccccc2)n1,14.5
14,CCOC(=O)c1ccc(NC(=O)CN(C)S(=O)(=O)c2ccc(Br)s2)cc1,13.3
15,C=CCC(NC(=O)c1ccc(C#N)cc1)C(=O)NCCC (stereo not shown),16.5
16,Cc1ccc(CCNC(=O)C2CCC(=O)N(Cc3cccc(F)c3)C2)cc1 (stereo not shown),11.1
17,COc1ccccc1Nc1nc(-c2sc(NC(=O)c3cccc(Cl)c3)nc2C)cs1,19.1
18,O=C(Nc1cccc(Cl)c1)N1CCSc2cc(Cl)ccc21,5.81
19,NC(=O)c1ccsc1NC(=O)c1cccs1,4.93
20,O=C(CCCc1ccccc1)N=C1SC2CS(=O)(=O)CC2N1c1ccccc1 (stereo not shown),17
21,O=C(O)/C=C/C(=O)N1Cc2cc3ccccc3nc2C1,12.1
22,COC(=O)C1(C)NC(c2ccccc2C)C2C(=O)N(c3ccccc3)C(=O)C21 (stereo not shown),10.2

row,SMILES,"hERG current change (%, negative = inhibition) at 1uM [%]"
1,COc1cc(/C=C2/C(=N)N3C(=NC2=O)SN=C3S(C)(=O)=O)ccc1OC(=O)c1ccco1,21.4
2,CCc1ccc(C(CC(=O)O)N2Cc3ccccc3C2=O)cc1 (stereo not shown),19
3,O=C(COC(=O)C1CCN(S(=O)(=O)c2c(Cl)cccc2Cl)CC1)NCc1ccco1,4
4,Cc1ccc(-c2nc(NCCN3CCOCC3)c3ccccc3n2)cc1,5.86
5,Cc1ccc(C(=O)NC(=S)NCC2CCCO2)cc1[N+](=O)[O-] (stereo not shown),13.6
6,O=c1[nH]c2ccccc2n1CCCSCCCn1c(=O)[nH]c2ccccc21,11.9
7,Cc1ccc(OCCNc2ccc(C(F)(F)F)cc2[N+](=O)[O-])cc1,13.7
8,CSCCC(NS(=O)(=O)c1ccc(Cl)cc1)C(=O)O (stereo not shown),10.4
9,Cc1ccc2c(c1)N(CC(=O)NC1CCCC1)C(=O)c1cccnc1O2,4.29
10,COc1ccc2oc(C(=O)OCC(=O)NCCN3C(=O)CSC3=O)c(C)c2c1,0.741
11,Cc1ccc(CSc2nnc(-c3ccccn3)n2N)cc1,13.4
12,O=C(COc1ccccc1)Nc1ccc(Cl)cn1,3.14
13,CN1C[C@@H]2C[C@@H](C3=Cc4cc(Cl)ccc4OC3)N3CCC[C@@]23C1=O,-2.11
14,CCNc1nc(C)nc2c1oc1ccccc12.Cl,-0.858
15,Cn1cccc1/C=N/NC(=O)CSc1nc2ccccc2n1C,16.1
16,CC(OC(=O)c1ccc(Cl)c(S(N)(=O)=O)c1)C(=O)NCc1ccc2c(c1)OCO2 (stereo not shown),7.99
17,CS(=O)(=O)c1ccccc1-c1nc(-c2ccc(C(F)(F)F)cc2)no1,14.3
18,N#C/C(=C\c1ccco1)C(=O)NCc1ccccc1,5.93
19,O=C(Nc1ccc(S(=O)(=O)N2CCCCC2)cc1)C1CCCCC1,3.03
20,Cc1noc(C)c1C(=O)NCc1ccccc1Br,13.3
21,CCOC(=O)c1c(C)[nH]c(C(=O)OC)c1CCC(=O)OC,14.5
22,O=C(NCCCn1ccnc1)c1ccc(Br)o1,10.9
